Measurements taken from PubChem BioAssay AID894 (National Center for Advancing Translational Sciences (NCATS), 2007).
“And” between values parts separate entries of the source, which are not always exact repeats. Identical values can stand only once. The campaign covered roughly 150,000 compounds. About 6,500 (4.3%) were called active. Inconclusive results, whose numbers are uncertain, are shown with a selection of clear calls. Calls follow the shape of the dose curve; as a rule, active = well fitted inhibition curve with a large enough effect (not every such curve was filed as active); inconclusive = small, poorly fitted or top-dose-only effect, or another doubt; inactive = no such curve, though single readings can be large or run the other way. A potency beside an inconclusive call is a rough fit, not a confirmed value.

target: 15-hydroxyprostaglandin dehydrogenase [NAD(+)] (Homo sapiens) (UniProt P15428); assay: qHTS Assay for Inhibitors of HPGD (15-Hydroxyprostaglandin Dehydrogenase); settings: purified HPGD, NADH fluorescence kinetic, PGE2 substrate; activity change, negative = inhibition: hits give low values
How it was run: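 NADH formation kinetics: reaction with 30 uM PGE2 and 1 mM NAD+ (final), 20 nM enzyme, Tris-HCl pH 8 with Tween 20, after 15 min compound preincubation at room temperature. Fluorescence change, last versus first of five reads.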
% is scaled to controls: 0 for no effect and ±100 for the full control effect; potency is read from the fitted curve at half-maximal effect; tags tell the direction and shape of the fitted curve.

Sequence of UniProt P15428 (P15428 whole entry, looked up): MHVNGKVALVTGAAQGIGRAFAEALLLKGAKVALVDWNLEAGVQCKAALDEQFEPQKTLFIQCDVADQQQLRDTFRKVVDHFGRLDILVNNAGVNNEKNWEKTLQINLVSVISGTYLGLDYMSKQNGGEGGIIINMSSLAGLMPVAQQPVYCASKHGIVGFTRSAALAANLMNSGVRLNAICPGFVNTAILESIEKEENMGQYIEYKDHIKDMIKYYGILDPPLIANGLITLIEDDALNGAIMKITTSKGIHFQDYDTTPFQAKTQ

Potency, active:
CCOc1ccc(OCc2ccc(C(=O)OCc3ccccn3)o2)cc1 25.1 µM, CCOC(=O)c1sc(=S)n(C)c1NC(=O)c1ccc(F)cc1 7.94 µM, COC(=O)c1sc(NC(=O)c2cccc([N+](=O)[O-])c2)c(C(N)=O)c1C 28.2 µM, Cc1ccc(C(=O)Oc2oc(-c3ccco3)nc2C=Nc2ccccc2)cc1 7.08 µM, S=C(Nc1cccc(Cl)c1Cl)Nn1cnnc1 25.1 µM, COc1ccccc1CC(=O)NCc1ccc2c(c1)OCO2 14.1 µM, CCOC(=O)C1=C(O)/C(=C\c2ccc(CNC(=O)C(=O)Nc3ccccc3)o2)N=C1C 31.6 µM, O=C(C1CCC(CNS(=O)(=O)c2cccs2)CC1)N1CCCCC1 (stereo not drawn) 3.16 µM, Cc1ccc(C)c(NC(=S)c2ccccn2)c1 28.2 µM, O=C(OCc1nnc(-c2ccccc2)o1)c1ccc2c(c1)OCCO2 7.94 µM, COc1ccccc1OCCCOc1c(Cl)cc(C)cc1Cl 14.1 µM, Cc1ccc(C(=O)/C=C/c2ccc(-c3ccc(C)cc3)o2)cc1 7.08 µM

Potency, inconclusive:
Cc1cc(O)ccc1N/C=C(\C#N)c1nc2ccccc2o1 25.1 µM [inhibitor, partial curve], Cc1c(-c2nc(N)nc(Nc3ccccc3F)n2)oc2ccccc12 35.5 µM [inhibitor, partial curve], CCOC(=O)c1c(NC(=O)C(=O)N/N=C/c2ccc(OCC)cc2)sc2c1CCCCC2 20 µM [inhibitor, partial curve], CC(C)CNC(=O)c1cccc(NC(=O)c2ccc(NC(=O)c3ccco3)cc2)c1 7.94 µM [inhibitor, partial curve], COc1ccc(CCNC(=O)Cn2nnc(-c3ccc(N(C)C)cc3)n2)cc1OC 31.6 µM [inhibitor, single point], O=c1oc(-c2cccs2)nc2sc3c(c12)CCCC3 15.8 µM [inhibitor, partial curve], COCCCNC(=O)c1ccc2nc3ccccc3c(=O)n2c1 31.6 µM [inhibitor, partial curve], CC1CC(C)CN(C(=O)c2ccc3c(c2)N(Cc2ccccc2)CCS3)C1 (stereo not drawn) 31.6 µM [inhibitor, partial curve], COC(=O)c1ccccc1NC(=O)c1c(O)c2cccc3c2n(c1=O)CCC3 28.2 µM [inhibitor, partial curve], COc1ccc2cc3cc(C(=O)N4CCN(Cc5ccc6c(c5)OCO6)CC4)oc3nc2c1 31.6 µM [inhibitor, partial curve], CCOC(=O)c1cccc(Nc2ncnc3ccc(C)cc23)c1 39.8 µM [inhibitor, single point], Cc1ccccc1N1C(=O)c2cc(S(N)(=O)=O)c(Cl)cc2NC1C (stereo not drawn) 8.91 µM [inhibitor, partial curve] and 31.6 µM [inhibitor, partial curve], O=C(N/N=C/c1c[nH]c2ccc(Br)cc12)c1ccn(Cc2ccc(Cl)cc2Cl)n1 39.8 µM [inhibitor, partial curve], CC(C)Oc1ccccc1C1Nc2ccccc2C(=O)N1c1ccc2c(c1)OCCO2 (stereo not drawn) 22.4 µM [inhibitor, partial curve], CCN(c1ccccc1)S(=O)(=O)c1ccc(Oc2ccc(-n3ccnc3)cc2)nc1 25.1 µM [inhibitor, partial curve], COc1ccc(CCNc2oc(-c3cccc4ccccc34)nc2P(=O)(OC)OC)cc1OC 28.2 µM [inhibitor, partial curve], Cc1oc(-c2cccs2)nc1CS(=O)CC(=O)NC1CCCCCC1 (stereo not drawn) 39.8 µM [inhibitor, single point], CNC(=O)COC(=O)c1cc2c(C)nn(-c3ccc(F)cc3)c2s1 12.6 µM [inhibitor, partial curve], CCCn1c(=O)c2[nH]c(-c3ccc(S(=O)(=O)O)cc3)nc2n(CCC)c1=O 14.1 µM [inhibitor, partial curve], COc1ccccc1/C=C/C(=O)OCC(=O)NNC(=O)c1ccccc1 28.2 µM [inhibitor, partial curve], COc1ccc(Oc2coc3c(CN(C)C)c(O)ccc3c2=O)cc1 25.1 µM [inhibitor, partial curve], O=c1[nH]c(NCCO)nc2c1C1(CCCC1)Cc1ccccc1-2 31.6 µM [inhibitor, partial curve], CCN1CCN(c2nc3c(C)cccn3c(=O)c2/C=C(\C#N)S(=O)(=O)c2ccc(C)cc2)CC1 25.1 µM [inhibitor, partial curve], N#Cc1nc(-c2cccs2)oc1N1CCN(c2ccccc2)CC1 28.2 µM [inhibitor, partial curve], COc1ccc(-n2nc(C(=O)N3CCN(c4ccc(F)cc4)CC3)c3ccccc3c2=O)c(OC)c1 25.1 µM [inhibitor, partial curve], CCc1ccc(-c2cc(C(=O)NCc3ccccn3)c3ccccc3n2)cc1 31.6 µM [inhibitor, partial curve], COc1ccccc1/C=N/NC(=O)c1nnn(-c2nonc2N)c1CSC1=NCCS1 31.6 µM [inhibitor, single point], COc1cccc(-c2nn(C)c3sc(C(=O)Nc4ccc5c(c4)OCCO5)cc23)c1 20 µM [inhibitor, partial curve], CCc1ccc2c(COC(=O)c3n[nH]c4ccccc34)cc(=O)oc2c1 4.47 µM [inhibitor, partial curve], COc1ccc2[nH]c(=O)c(CN(C(=O)c3ccco3)C3CCCCC3)cc2c1 25.1 µM [inhibitor, partial curve], COc1ccc(C(=O)c2ccc(O)cc2)c(O)c1O 17.8 µM [inhibitor, partial curve, poor fit], CC1(C)Cc2nc3sc4c(=O)n(CC(=O)NCc5ccco5)cnc4c3cc2CO1 35.5 µM [inhibitor, partial curve, poor fit], Cc1cc(=O)oc2cc(NC(=O)c3cc4ccccc4o3)ccc12 28.2 µM [inhibitor, partial curve], C(=C\CSc1nnnn1-c1ccccc1)/CSc1nnnn1-c1ccccc1 22.4 µM [inhibitor, partial curve], CCNc1ccc(Br)cc(C(=O)/C=C/c2ccc3c(c2)OCO3)c1=O 15.8 µM [inhibitor, partial curve], COCCn1c(=O)c(-c2cc(F)cc(F)c2)nc2cnc(Oc3ccccc3)nc21 31.6 µM [inhibitor, single point], COc1cc2[nH]c(=O)n(CCCCCC(=O)N3CC=C(c4ccccc4)CC3)c(=O)c2cc1OC 28.2 µM [inhibitor, partial curve], COc1ccccc1Nc1nnc(SCC(=O)NC(=O)Nc2ccc3c(c2)OCCO3)s1 31.6 µM [inhibitor, partial curve, poor fit]

Activity change, negative = inhibition, inactive:
CCOC(=O)C1=C(C)N(CC(C)C)C(=O)/C1=C\c1ccc(OCC(=O)Nc2ccccc2)cc1 -25.4%, CCOc1ccc(C2C(C(=O)C3CC3)N3C=C(C#N)C=CC3C2(C#N)C#N)cc1 (stereo not drawn) -15%, O=C(c1cccc(F)c1)N1CCC2(CCCN(C(c3ccccc3)c3ccccc3)C2)CC1 -7.28%, N#CC(=C1CCCC1)c1nc(-c2ccccc2)cs1 -12.9%, Cc1cccc(Cn2cnc3c(NS(C)(=O)=O)c(C)c(C)cc32)c1 3.97%, CCOC(=O)c1ccc(NS(=O)(=O)c2ccc(SC)cc2)cc1 -12.6%, O=C(N/N=C/c1ccccc1F)c1csc2c1CCCC2 -25%, COc1cc([N+](=O)[O-])ccc1NC(=O)C[n+]1ccccc1C -20.1%, COCCn1c(=NC(C)=O)sc2cc([N+](=O)[O-])ccc21 -24.5%, O=C1c2ccccc2C(=O)N1CCCCN(C(=O)c1cccc([N+](=O)[O-])c1)c1ccc(Cl)cc1 -20.5%, Cc1cccc(-n2c(=S)[nH]c3c(oc4ccccc43)c2=O)c1 -11.3%, COC(=O)CCC(NC(=O)c1cc(-c2ccc3c(c2)OCCO3)oc1C)C(=O)OC (stereo not drawn) -19.7%, O=S(=O)(CCSc1ccccn1)c1nc2ccccc2s1 -27.2%, COc1ccc(/C=N\NS(=O)(=O)c2ccc(Cl)cc2)cc1COc1ccccc1[N+](=O)[O-] -14%, CCCOc1ccc(Br)cc1/C=N/NC(=O)c1cc(OC)c(OC)c(OC)c1 -10.7%, COc1cc(/C=N/S(=O)(=O)CCc2ccccc2)ccc1O -11.7%, CC(C)Oc1ccc(/C(O)=C2/C(=O)C(=O)N(Cc3cccnc3)C2c2ccco2)cc1 (stereo not drawn) -17.4%, CCOCCCNC(=O)C(c1ccccc1)N(Cc1ccc2c(c1)OCO2)C(=O)CNC(C)=O (stereo not drawn) -7.67%
